This note sets out measurements from US8669255B2, “Substituted octahydropyrrolo[1,2-a]pyrazines as calcium channel blockers” (AbbVie Inc., priority 2011, dated 2014).

Broadly, the IC50 is the concentration at which inhibition is half-maximal.

This test has as its target human Cav2.2 (Homo sapiens, UniProt Q00975). Put plainly: In vitro assessment of calcium channel activity using FLIPR (Ca2+ influx in IMR32 cells). The class given is cell-based. The conditions noted are these: IMR32 cells endogenously expressing human Cav2.2; 60 minute pre-incubation; 2 μM nifedipine; depolarized with 80 mM KCl; average of at least two runs unless marked (*).
`COC(C(=O)N1CCN2C[C@H](Oc3cnc(C4CC4)cn3)C[C@H]2C1)(c1ccccc1)C(F)(F)F` (stereo partly drawn) [Example 165, 1-[(7R,8aS)-7-[(5-cyclopropylpyrazin-2-yl)oxy]hexahydropyrrolo[1,2-a]-pyrazin-2(1H)-yl]-3,3,3-trifluoro-2-methoxy-2-phenylpropan-1-one]: the IC50 is 2.69 µM.
`CO[C@H](C(=O)N1CCN2C[C@H](Oc3cnc(C4CC4)cn3)C[C@H]2C1)c1cccc(C(F)(F)F)c1` [Example 168, (2S)-1-[(7R,8aS)-7-[(5-cyclopropylpyrazin-2-yl)oxy]hexahydropyrrolo[1,2-a]pyrazin-2(1H)-yl]-2-methoxy-2-[3-(trifluoromethyl)phenyl]ethanone]: the IC50 worked out at 1.9 µM.
Under `CO[C@@H](C(=O)N1CCN2C[C@H](Oc3cnc(C4CC4)cn3)C[C@H]2C1)c1cccc(C(F)(F)F)c1` [Example 169, (2R)-1-[(7R,8aS)-7-[(5-cyclopropylpyrazin-2-yl)oxy]hexahydropyrrolo[1,2-a]pyrazin-2(1H)-yl]-2-methoxy-2-[3-(trifluoromethyl)phenyl]ethanone] stands 2.04 µM.
As for `O=C(c1ccc(C(F)(F)F)cc1)N1CC(=O)N2C[C@H](Oc3cnc(C4CC4)cn3)C[C@H]2C1` [Example 174, (7R,8aS)-7-[(5-cyclopropylpyrazin-2-yl)oxy]-2-[4-(trifluoromethyl)-benzoyl]hexahydropyrrolo[1,2-a]pyrazin-4(1H)-one], the IC50 is 5.42 µM.
For the molecule `CN(C)C(C(=O)N1CCN2C[C@H](Oc3cnc(C4CC4)cn3)C[C@H]2C1)c1cccc(C(F)(F)F)c1` (stereo partly drawn) [Example 175, 1-[(7R,8aS)-7-[(5-cyclopropylpyrazin-2-yl)oxy]hexahydropyrrolo[1,2-a]-pyrazin-2(1H)-yl]-2-(dimethylamino)-2-[3-(trifluoromethyl)phenyl]ethanone], the IC50 came out at 0.33 µM.
Under `CC(O)(C(=O)N1CCN2C[C@H](Oc3cnc(C4CC4)cn3)C[C@H]2C1)c1cccc(C(F)(F)F)c1` (stereo partly drawn) [Example 176, 1-[(7R,8aS)-7-[(5-cyclopropylpyrazin-2-yl)oxy]hexahydropyrrolo[1,2-a]-pyrazin-2(1H)-yl]-2-hydroxy-2-[3-(trifluoromethyl)phenyl]propan-1-one] stands 1.59 µM; under `O=C(C(c1cccc(C(F)(F)F)c1)N1CCOCC1)N1CCN2C[C@H](Oc3cnc(C4CC4)cn3)C[C@H]2C1` (stereo partly drawn) [Example 177, 1-[(7R,8aS)-7-[(5-cyclopropylpyrazin-2-yl)oxy]hexahydropyrrolo[1,2-a]-pyrazin-2(1H)-yl]-2-(morpholin-4-yl)-2-[3-(trifluoromethyl)phenyl]ethanone], 1.92 µM.
To `O=C(c1cccc(C(F)(F)F)c1)N1CC(=O)N2C[C@H](Oc3cnc(C4CC4)cn3)C[C@H]2C1` [Example 178, (7R,8aS)-7-[(5-cyclopropylpyrazin-2-yl)oxy]-2-[3-(trifluoromethyl)-benzoyl]hexahydropyrrolo[1,2-a]pyrazin-4(1H)-one] belongs 0.96 µM.
To `CNC(C(=O)N1CCN2C[C@H](Oc3cnc(C4CC4)cn3)C[C@H]2C1)c1cccc(C(F)(F)F)c1` (stereo partly drawn) [Example 179, 1-[(7R,8aS)-7-[(5-cyclopropylpyrazin-2-yl)oxy]hexahydropyrrolo[1,2-a]-pyrazin-2(1H)-yl]-2-(methylamino)-2-[3-(trifluoromethyl)phenyl]ethanone] belongs 0.58 µM; to `CC(C)(C)OC(=O)NC(C(=O)N1CCN2C[C@H](Oc3cnc(C4CC4)cn3)C[C@H]2C1)c1cccc(C(F)(F)F)c1` (stereo partly drawn) [Example 180, tert-butyl {2-[(7R,8aS)-7-[(5-cyclopropylpyrazin-2-yl)oxy]hexahydro-pyrrolo[1,2-a]pyrazin-2(1H)-yl]-2-oxo-1-[3-(trifluoromethyl)phenyl]ethyl}carbamate], 0.49 µM.
For `CC(C)(C)OC(=O)NC(C(=O)N1CCN2C[C@H](Oc3cnc(C4CC4)cn3)C[C@H]2C1)c1ccc(C(F)(F)F)cc1` (stereo partly drawn) [Example 181, tert-butyl {2-[(7R,8aS)-7-[(5-cyclopropylpyrazin-2-yl)oxy]hexahydro-pyrrolo[1,2-a]pyrazin-2(1H)-yl]-2-oxo-1-[4-(trifluoromethyl)phenyl]ethyl}carbamate], the IC50 is 0.42 µM.
Under `COC(=O)NC(C(=O)N1CCN2C[C@H](Oc3cnc(C4CC4)cn3)C[C@H]2C1)c1cccc(C(F)(F)F)c1` (stereo partly drawn) [Example 182, methyl {2-[(7R,8aS)-7-[(5-cyclopropylpyrazin-2-yl)oxy]hexahydro-pyrrolo[1,2-a]pyrazin-2(1H)-yl]-2-oxo-1-[3-(trifluoromethyl)phenyl]ethyl}carbamate] stands 1.18 µM; under `COC(=O)NC(C(=O)N1CCN2C[C@H](Oc3cnc(C4CC4)cn3)C[C@H]2C1)c1ccc(C(F)(F)F)cc1` (stereo partly drawn) [Example 183, methyl {2-[(7R,8aS)-7-[(5-cyclopropylpyrazin-2-yl)oxy]hexahydro-pyrrolo[1,2-a]pyrazin-2(1H)-yl]-2-oxo-1-[4-(trifluoromethyl)phenyl]ethyl}carbamate], 0.73 µM.
To `CN[C@@H](CC(C)C)C(=O)N1CCN2C[C@H](Oc3cnc(C4CC4)cn3)C[C@H]2C1` [Example 184, (2S)-1-[(7R,8aS)-7-[(5-cyclopropylpyrazin-2-yl)oxy]hexahydropyrrolo[1,2-a]pyrazin-2(1H)-yl]-4-methyl-2-(methylamino)pentan-1-one] belongs 14.9 µM.
As for `CN[C@H](CC(C)C)C(=O)N1CCN2C[C@H](Oc3cnc(C4CC4)cn3)C[C@H]2C1` [Example 185, (2R)-1-[(7R,8aS)-7-[(5-cyclopropylpyrazin-2-yl)oxy]hexahydropyrrolo[1,2-a]pyrazin-2(1H)-yl]-4-methyl-2-(methylamino)pentan-1-one], the IC50 worked out at 5.26 µM.
Under `CN[C@H](C(=O)N1CCN2C[C@H](Oc3cnc(C4CC4)cn3)C[C@H]2C1)c1cccc(C(F)(F)F)c1` [Example 186, (2S)-1-[(7R,8aS)-7-[(5-cyclopropylpyrazin-2-yl)oxy]hexahydropyrrolo[1,2-a]pyrazin-2(1H)-yl]-2-(methylamino)-2-[3-(trifluoromethyl)phenyl]ethanone] stands 2.03 µM; under `CN[C@@H](C(=O)N1CCN2C[C@H](Oc3cnc(C4CC4)cn3)C[C@H]2C1)c1cccc(C(F)(F)F)c1` [Example 187, (2R)-1-[(7R,8aS)-7-[(5-cyclopropylpyrazin-2-yl)oxy]hexahydropyrrolo[1,2-a]pyrazin-2(1H)-yl]-2-(methylamino)-2-[3-(trifluoromethyl)phenyl]ethanone], 0.37 µM; under `CNC(C(=O)N1CCN2C[C@H](Oc3cnc(C4CC4)cn3)C[C@H]2C1)c1ccc(C(F)(F)F)cc1` (stereo partly drawn) [Example 188, 1-[(7R,8aS)-7-[(5-cyclopropylpyrazin-2-yl)oxy]hexahydropyrrolo[1,2-a]-pyrazin-2(1H)-yl]-2-(methylamino)-2-[4-(trifluoromethyl)phenyl]ethanone], 0.46 µM.
To `CN[C@H](C(=O)N1CCN2C[C@H](Oc3cnc(C4CC4)cn3)C[C@H]2C1)c1ccc(C(F)(F)F)cc1` [Example 189, (2S)-1-[(7R,8aS)-7-[(5-cyclopropylpyrazin-2-yl)oxy]hexahydropyrrolo[1,2-a]pyrazin-2(1H)-yl]-2-(methylamino)-2-[4-(trifluoromethyl)phenyl]ethanone] belongs 6.12 µM; to `CN[C@@H](C(=O)N1CCN2C[C@H](Oc3cnc(C4CC4)cn3)C[C@H]2C1)c1ccc(C(F)(F)F)cc1` [Example 190, (2R)-1-[(7R,8aS)-7-[(5-cyclopropylpyrazin-2-yl)oxy]hexahydropyrrolo[1,2-a]pyrazin-2(1H)-yl]-2-(methylamino)-2-[4-(trifluoromethyl)phenyl]ethanone], 0.43 µM; to `COC(=O)N[C@H](C(=O)N1CCN2C[C@H](Oc3cnc(C4CC4)cn3)C[C@H]2C1)c1ccc(C(F)(F)F)cc1` [Example 191, methyl {(1S)-2-[(7R,8aS)-7-[(5-cyclopropylpyrazin-2-yl)oxy]hexahydro-pyrrolo[1,2-a]pyrazin-2(1H)-yl]-2-oxo-1-[4-(trifluoromethyl)phenyl]ethyl}carbamate], 0.86 µM.
Under `COC(=O)N[C@@H](C(=O)N1CCN2C[C@H](Oc3cnc(C4CC4)cn3)C[C@H]2C1)c1ccc(C(F)(F)F)cc1` [Example 192, methyl{(1R)-2-[(7R,8aS)-7-[(5-cyclopropylpyrazin-2-yl)oxy]hexahydro-pyrrolo[1,2-a]pyrazin-2(1H)-yl]-2-oxo-1-[4-(trifluoromethyl)phenyl]ethyl}carbamate] stands 0.77 µM; under `CN[C@@H](C(=O)N1CCN2C[C@H](Oc3cnc(C4CC4)cn3)C[C@H]2C1)c1ccccc1` [Example 193, (2R)-1-[(7R,8aS)-7-[(5-cyclopropylpyrazin-2-yl)oxy]hexahydropyrrolo[1,2-a]pyrazin-2(1H)-yl]-2-(methylamino)-2-phenylethanone], 7.63 µM.
Turning to `CCNC(C(=O)N1CCN2C[C@H](Oc3cnc(C4CC4)cn3)C[C@H]2C1)c1ccc(C(F)(F)F)cc1` (stereo partly drawn) [Example 194, 1-[(7R,8aS)-7-[(5-cyclopropylpyrazin-2-yl)oxy]hexahydropyrrolo[1,2-a]-pyrazin-2(1H)-yl]-2-(ethylamino)-2-[4-(trifluoromethyl)phenyl]ethanone], the IC50 is 0.53 µM.
To `CC(C)NC(C(=O)N1CCN2C[C@H](Oc3cnc(C4CC4)cn3)C[C@H]2C1)c1ccc(C(F)(F)F)cc1` (stereo partly drawn) [Example 195, 1-[(7R,8aS)-7-[(5-cyclopropylpyrazin-2-yl)oxy]hexahydropyrrolo[1,2-a]-pyrazin-2(1H)-yl]-2-(isopropylamino)-2-[4-(trifluoromethyl)phenyl]ethanone] belongs 1.1 µM; to `O=C(C(c1ccc(C(F)(F)F)cc1)N1CCCC1)N1CCN2C[C@H](Oc3cnc(C4CC4)cn3)C[C@H]2C1` (stereo partly drawn) [Example 196, 1-[(7R,8aS)-7-[(5-cyclopropylpyrazin-2-yl)oxy]hexahydropyrrolo[1,2-a]-pyrazin-2(1H)-yl]-2-(pyrrolidin-1-yl)-2-[4-(trifluoromethyl)phenyl]ethanone], 0.42 µM; to `O=C(C(NC1CC1)c1ccc(C(F)(F)F)cc1)N1CCN2C[C@H](Oc3cnc(C4CC4)cn3)C[C@H]2C1` (stereo partly drawn) [Example 197, 2-(cyclopropylamino)-1-[(7R,8aS)-7-[(5-cyclopropylpyrazin-2-yl)oxy]-hexahydropyrrolo[1,2-a]pyrazin-2(1H)-yl]-2-[4-(trifluoromethyl)phenyl]ethanone], 1.05 µM.
